These results are taken from the antibiotic and cytotoxicity screens of Wong et al. (2023).

This is one part of the list.

The test system of assay [1] is HSkMC (human skeletal muscle cells). Description: cytotoxicity call (relative viability < 0.9). The note with it: 10 µM.
Assay [2] concerns HepG2. Description: cytotoxicity call (relative viability < 0.9). Particulars: 10 µM.
The subject of assay [3] is S. aureus RN4220. Nature of the assay: growth inhibition call (relative growth <= 0.2). The note with it: 50 µM.

As to `C[C@@H]1CN([C@@H](C)CO)C(=O)Cc2cc(NS(=O)(=O)c3ccc(Cl)cc3)ccc2O[C@H]1CN(C)Cc1ccc(Oc2ccccc2)cc1`, the cytotoxicity call in assay [1] and in assay [2] was “active” throughout. Moreover, the growth inhibition call in assay [3] was “inactive”.
As for `Cc1ccccc1S(=O)(=O)N1[C@@H]2Cn3c(cccc3=O)[C@H]1[C@@H](C(=O)N1CCOCC1)[C@@H]2CO`, the cytotoxicity call in assay [1] and in assay [2] was “inactive” throughout. For the same compound, the growth inhibition call in assay [3] is “inactive”.
With `C[C@@H]1CCCCO[C@H](CN(C)Cc2ccc(C(F)(F)F)cc2)[C@H](C)CN([C@@H](C)CO)C(=O)c2cc(NC(=O)c3ccncc3)ccc2O1`, the cytotoxicity call in assay [1] and in assay [2] was “inactive” throughout. Further, in assay [3], the growth inhibition call is “inactive”.
On to `C[C@H](CO)N1C[C@H](C)[C@H](CN(C)C(=O)Nc2ccccc2)Oc2ccc(NC(=O)Nc3ccc(C(F)(F)F)cc3)cc2C1=O`, for which the cytotoxicity call in assay [1] and in assay [2] was “active” each time. Further, the growth inhibition call in assay [3] was “inactive”.
In the case of `C[C@@H]1CN([C@H](C)CO)C(=O)c2cccc(NC(=O)Nc3ccc(C(F)(F)F)cc3)c2O[C@H]1CN(C)CC1CCCCC1`, the cytotoxicity call in assay [1] and in assay [2] was “active” in each case. Further, the growth inhibition call in assay [3] was “inactive”.
As for `C[C@H]1CN([C@@H](C)CO)C(=O)c2cc(NS(C)(=O)=O)ccc2O[C@@H]1CN(C)Cc1ccc(C(=O)O)cc1`, the cytotoxicity call in assay [1] and in assay [2] was “inactive” throughout. The growth inhibition call in assay [3] is “inactive”.
Take `C[C@@H]1CN([C@@H](C)CO)C(=O)c2cccc(NS(=O)(=O)c3ccc(F)cc3)c2O[C@@H]1CN(C)C(=O)Nc1ccc(C(F)(F)F)cc1`: the cytotoxicity call in assay [1] was “inactive”. The cytotoxicity call in assay [2] was “active”. Moreover, the growth inhibition call in assay [3] was “inactive”.
In the case of `C[C@H]1CCCCO[C@@H](CN(C)C(=O)Cc2ccccc2)[C@@H](C)CN([C@@H](C)CO)C(=O)c2cc(NS(=O)(=O)c3ccc(Cl)cc3)ccc2O1`, the cytotoxicity call in assay [1] and in assay [2] was “inactive” throughout. In assay [3], the growth inhibition call was “inactive”.
As to `C[C@H]1CN([C@@H](C)CO)C(=O)c2cc(NC(=O)Nc3cccc4ccccc34)ccc2O[C@@H]1CN(C)Cc1ccc(-c2ccccc2)cc1`, the cytotoxicity call in assay [1] and in assay [2] was “active” in each case. In addition, in assay [3], the growth inhibition call was “inactive”.
